Assay results: PubChem BioAssay AID485364 (National Center for Advancing Translational Sciences (NCATS), 2010)
Where “and” joins values, the source holds several entries; their conditions need not be identical. Identical values can stand only once. Screen size: about 360,000 compounds; about 11,000 (3.1%) were called active. The inconclusive results got no clear call from the source; some entries with a clear call stand among them for comparison. Calls come from the whole dose curve; as a rule, active = well fitted inhibition curve with a large enough effect; inconclusive = small, poorly fitted or top-dose-only effect; inactive = no such curve, though single readings can be large or run the other way. Potencies of inconclusive entries are left out as doubtful fits.

Each compound was assayed against Schistosoma mansoni thioredoxin glutathione reductase (TGR) (UniProt Q962Y6) (assay: qHTS Assay for the Inhibitors of Schistosoma Mansoni Peroxiredoxins). Settings: purified TGR, DTNB reduction, TNB absorbance 405 nm; activity change, negative = inhibition: at 114 µM (top of the series) unless noted.
Outline: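 TGR 20 nM + NADPH 100 uM (dispensed conc.), cpd preinc 15 min RT; start with NADPH (500 uM addition) then DTNB (15 mM addition). Kinetic TNB absorbance, 405 nm filter. Four-parameter Hill fit across titration.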
% is set by controls: 0 for no effect and ±100 for the full control effect; potency is the fitted concentration of half-maximal effect; tags give direction and shape of the fitted curve.
Note: nearly all actives have a fitted effect of over 60% in size.

Question: With `CCc1ccc(NC(=O)CC2C(=O)OCCN2CC)cc1` (stereo not given) as the compound, how does the Potency read?
Answer: Its Potency is active: 14.1 µM.

Question: How did the Potency turn out when `Cc1ccc(C23OCCN2CCn2nc4ccccc4c23)cc1` (stereo not given) was run?
Answer: Its Potency is inconclusive [inhibitor, partial curve].

Question: For `Fc1ccccc1NC(=S)NCc1ccccc1`, which Potency is on record?
Answer: Its Potency is inconclusive [inhibitor, partial curve, poor fit].

Question: Which Potency does the source give for `O=C(NCC(c1ccco1)S(=O)(=O)c1ccc(Cl)cc1)c1ccccc1F` (stereo not given) here?
Answer: Its Potency is active: 2.51 µM.

Question: `Cc1ccc(N(C(=O)CS(=O)CC(=O)Nc2ccc(F)cc2)C(C)C(=O)NC(C)(C)C)cc1` (stereo not given) was tested. Which Potency did it give?
Answer: The Potency was inconclusive [inhibitor, partial curve].

Question: `O=C1C(Cl)=C(N2CCCCC2)C(=O)N1c1ccccc1` was tested. Which “activity change, negative = inhibition” value did it give?
Answer: Its value is inactive: 1.71%.

Question: `CCOc1ccc(CN2CCN(CCCc3ccccc3)C(CCO)C2)cc1` (stereo not given) was tested. Which Potency did it give?
Answer: The Potency was inconclusive [inhibitor, single point].

Question: With `COc1ccc(CN2CCNC(=O)C2CC(=O)NC2CCCC2)cc1OC` (stereo not given) as the compound, how does the Potency read?
Answer: The Potency was inconclusive [inhibitor, full curve, poor fit].

Question: Which “activity change, negative = inhibition” value does the source give for `NC(=O)C1=C[C@@H](c2ccc(C(F)(F)F)cc2)C[C@@H](OCc2ccc(CO)cc2)O1` here?
Answer: Its value is inactive: -25.9%.

Question: For `O=S(=O)(c1cccc(C(F)(F)F)c1)n1c(/C=C/c2ccccc2)nc2ccccc21`, which “activity change, negative = inhibition” value is on record?
Answer: Its value is inactive: 1.72%.

Question: `CCCCCCn1c(N)c(C(=O)NCCN2CCOCC2)c2nc3ccccc3nc21` was tested. Which Potency did it give?
Answer: The Potency was inconclusive [inhibitor, partial curve].

Question: With `Cc1ccc(C(=O)N2CCc3cc(CNC(=O)COc4ccccc4)ccc32)cc1` as the compound, how does the Potency read?
Answer: Its Potency is inconclusive [inhibitor, single point].

Question: How did the “activity change, negative = inhibition” value turn out when `COc1cccc(-c2nn(-c3ccc(C)cc3)cc2C(=O)NCC(c2cccs2)N2CCOCC2)c1` (stereo not given) was run?
Answer: The value was inactive: -17.9%.

Question: With `O=C1CN(C(=O)Cn2ncc(Cl)c(Cl)c2=O)c2ccccc2N1` as the compound, how does the Potency read?
Answer: The Potency was active: 25.1 µM.

Question: Which Potency does the source give for `COc1cccc(C2=NN(C(=O)c3ccco3)C(c3ccco3)C2)c1` (stereo not given) here?
Answer: The Potency was inconclusive [inhibitor, partial curve].

Question: `O=C(NC(=S)Nc1cccc2[nH]ncc12)c1ccccc1` was tested. Which Potency did it give?
Answer: Its Potency is inconclusive [inhibitor, full curve, poor fit].

Question: How did the Potency turn out when `Cc1n[nH]c(=O)c2c(NC(=O)COC(=O)c3ncc(Cl)c(Cl)c3Cl)oc(C)c12` was run?
Answer: The Potency was active: 15.8 µM.

Question: Which Potency does the source give for `CC(=O)N(/N=C1/C(=O)Nc2ccccc21)c1ccccc1` here?
Answer: Its Potency is inconclusive [inhibitor, full curve, poor fit].

Question: With `N[C@@H](Cc1ccccc1)c1nnc2sc(SCc3ccccc3)nn12` as the compound, how does the Potency read?
Answer: The Potency was inconclusive [inhibitor, partial curve].

Question: Which Potency does the source give for `CC(C)(C)N1C(=O)NC(=O)/C(=C\c2ccc3c(c2)CCN3CCCCl)C1=O` here?
Answer: Its Potency is inconclusive [inhibitor, full curve].

Question: How did the Potency turn out when `O=C(CSc1nnc2c3ccccc3c3ccccc3c2n1)Nc1ccccc1F` was run?
Answer: Its Potency is inconclusive [inhibitor, partial curve].

Question: With `Cc1ccc(CNC(=O)c2ccc(CSCc3ccc(C)cc3)o2)cc1` as the compound, how does the Potency read?
Answer: The Potency was inconclusive [inhibitor, partial curve].

Question: For `Cc1cccc(OCC(=O)N(Cc2ccc(C)o2)C2CCS(=O)(=O)C2)c1` (stereo not given), which Potency is on record?
Answer: Its Potency is inconclusive [inhibitor, partial curve].

Question: For `CC(=O)C1=C(C)NC(SCC(=O)c2cc(Cl)ccc2Cl)=C(C#N)C1c1ccco1` (stereo not given), which Potency is on record?
Answer: Its Potency is inconclusive [inhibitor, partial curve].

Question: Which Potency does the source give for `CC(=O)C(Sc1nnnn1-c1ccc(O)cc1)c1ccccc1` (stereo not given) here?
Answer: The Potency was inconclusive [inhibitor, partial curve].

Question: How did the “activity change, negative = inhibition” value turn out when `COc1ccc(-c2nnn(CC(=O)c3ccccc3)n2)cc1OC` was run?
Answer: The value was inactive: -7.86%.

Question: With `CC(=O)c1c(O)n(-c2cccc(Cl)c2)c(=O)[nH]c1=O` (tested in a mixture with another compound) as the compound, how does the Potency read?
Answer: Its Potency is inconclusive [inhibitor, full curve].

Question: How did the Potency turn out when `C/C(=N\Nc1ccc(F)cc1F)c1ccc(N2CCOCC2)cc1` was run?
Answer: The Potency was inconclusive [inhibitor, partial curve].

Question: Which Potency does the source give for `Cc1ccc(OCCOc2cccc(C=C3C(=O)NC(=O)NC3=O)c2)c(C)c1` here?
Answer: Its Potency is inconclusive [inhibitor, full curve, poor fit].

Question: How did the Potency turn out when `Cc1ccc(SCC(=O)OCn2nnc3ccccc3c2=O)cc1C` was run?
Answer: Its Potency is inconclusive [inhibitor, full curve, poor fit].

Question: `CCc1ccccc1NC(=O)Nc1cnccn1` was tested. Which Potency did it give?
Answer: Its Potency is inconclusive [inhibitor, full curve, poor fit].

Question: With `CCSc1nnc(-c2cccnc2)n1Cc1ccco1` as the compound, how does the Potency read?
Answer: The Potency was active: 35.5 µM.

Question: How did the “activity change, negative = inhibition” value turn out when `COc1ccccc1NC(=O)Nc1nn(C)c2cccc(OC)c12` was run?
Answer: The value was inactive: 8.84%.

Question: `CCCCC(=O)NNC(=S)NC(=O)c1cccc([N+](=O)[O-])c1` was tested. Which Potency did it give?
Answer: The Potency was inconclusive [inhibitor, full curve, poor fit].

Question: Which “activity change, negative = inhibition” value does the source give for `CSc1ncccc1C(=O)N(C)CC(=O)Nc1cccc(F)c1` here?
Answer: The value was inactive: -12.1%.

Question: Which Potency does the source give for `O=C(Nc1ccccc1C(=O)Nc1ccccc1C(=O)NCc1ccco1)c1ccco1` here?
Answer: The Potency was inconclusive [inhibitor, partial curve].

Question: With `Cc1cccc(N2C(=O)NC(=O)/C(=C\c3cnc(-c4ccccc4)nc3)C2=O)c1` as the compound, how does the Potency read?
Answer: The Potency was active: 5.01 µM.

Question: `O=C(CC1C(=O)NCCN1Cc1cccc(F)c1F)NC1CCCCCC1` (stereo not given) was tested. Which Potency did it give?
Answer: Its Potency is inconclusive [inhibitor, partial curve].

Question: With `CCOC(=O)Cn1c(N2CCCCCC2)nc2c1c(=O)[nH]c(=O)n2C` as the compound, how does the Potency read?
Answer: Its Potency is inconclusive [inhibitor, single point].

Question: `CCN1C(=O)/C(=C/c2cc(C)n(C)c2C)SC1=Nc1ccc(OC)cc1` was tested. Which Potency did it give?
Answer: The Potency was inconclusive [inhibitor, partial curve].

Question: For `CC(=O)c1cccc(OCC(O)CNCC2COc3ccccc3O2)c1` (stereo not given), which Potency is on record?
Answer: Its Potency is inconclusive [inhibitor, partial curve].

Question: `Cc1csc(NC(=O)/C=C/c2ccco2)n1` was tested. Which Potency did it give?
Answer: The Potency was active: 50.1 µM.

Question: `O=C(Nc1ncccc1O)c1ccc(OCC2CCCO2)cc1` (stereo not given) was tested. Which “activity change, negative = inhibition” value did it give?
Answer: The value was inactive: -23.3%.

Question: `O=C(CC1C(=O)OCC2CCCCN21)Nc1ccccc1C(F)(F)F` (stereo not given) was tested. Which Potency did it give?
Answer: The Potency was inconclusive [inhibitor, partial curve].

Question: For `Cc1ccc(CN(C)C(=O)c2ccc(S(=O)(=O)N3CCCCCC3)cc2)o1`, which Potency is on record?
Answer: Its Potency is active: 50.1 µM.

Question: Which “activity change, negative = inhibition” value does the source give for `C=CCSc1cc(C)nc2c(-c3ccccc3)cnn12` here?
Answer: Its value is inactive: -13.1%.

Question: With `Cc1csc(NC(=O)c2cc(-c3ccco3)nc3ccccc23)n1` as the compound, how does the Potency read?
Answer: The Potency was inconclusive [inhibitor, partial curve].

Question: With `Cn1c(-c2ccc(Br)o2)nc2ccccc21` as the compound, how does the Potency read?
Answer: Its Potency is active: 17.8 µM.

Question: How did the Potency turn out when `CCOc1ccc2oc(=O)cc(CN3CCN(Cc4ccccc4)CC3)c2c1` was run?
Answer: The Potency was inconclusive [inhibitor, full curve, poor fit].

Question: How did the Potency turn out when `CCc1ccc2oc(-c3cccc(NC(=O)c4ccc(-c5cccc([N+](=O)[O-])c5)o4)c3)nc2c1` was run?
Answer: Its Potency is inconclusive [inhibitor, partial curve].

Question: How did the Potency turn out when `Cc1nc(N)sc1-c1csc(N(C)c2ccc(O)cc2)n1` was run?
Answer: Its Potency is inconclusive [inhibitor, partial curve, poor fit].

Question: For `CCOC(=O)C1CCN(C(=O)Cc2cccc3ccccc23)CC1`, which Potency is on record?
Answer: The Potency was inconclusive [inhibitor, partial curve, poor fit].

Question: With `O=C1c2ccccc2S(=O)(=O)N1CCOc1ccccc1` as the compound, how does the “activity change, negative = inhibition” value read?
Answer: The value was inactive: -17.4%.

Question: Which Potency does the source give for `Cc1cc(N2CCC(C)CC2)nc2cccc(O)c12` here?
Answer: Its Potency is inconclusive [inhibitor, full curve].

Question: Which “activity change, negative = inhibition” value does the source give for `CCOc1ncc(S(=O)(=O)N2CCN(CC)CC2)cc1C(=O)O` here?
Answer: Its value is inactive: -4.37%.

Question: How did the Potency turn out when `CN(C1CCCCC1)S(=O)(=O)c1ccc(NC(=S)NC(=O)c2cccs2)cc1` was run?
Answer: Its Potency is inconclusive [inhibitor, full curve].

Question: For `Cc1cccc(NC(=O)c2nc[nH]c2C(=O)N2CCC(C)CC2)c1`, which Potency is on record?
Answer: The Potency was inconclusive [inhibitor, partial curve].

Question: For `COc1ccc(/C=C(\NC(=O)c2ccccc2)C(=O)NC2CCCCC2)cc1`, which “activity change, negative = inhibition” value is on record?
Answer: Its value is inactive: -5.9%.

Question: Which Potency does the source give for `Cc1ccc(OCCSc2nc3ccccc3n2CCC(=O)O)cc1C` here?
Answer: Its Potency is inconclusive [inhibitor, single point].

Question: How did the Potency turn out when `CSC1=C(C#N)C(c2ccccc2Cl)C2=C(N1)c1ccccc1C2=O` (stereo not given) was run?
Answer: The Potency was inconclusive [inhibitor, full curve, poor fit].

Question: Which Potency does the source give for `CCOC(=O)N1CCN(C(=O)c2c(N)no[n+]2[O-])CC1` here?
Answer: The Potency was inconclusive [inhibitor, single point].

Question: `CC(=O)c1cccc(-n2c(CCC(=O)O)ccc2-c2ccccc2)c1` was tested. Which Potency did it give?
Answer: The Potency was active: 3.55 µM and active: 17.8 µM.

Question: How did the Potency turn out when `CCOC(=O)C1CCN(C(=O)c2ccc3c(c2)sc2nc(-c4ccc(OCC)cc4)cn23)CC1` was run?
Answer: The Potency was inconclusive [inhibitor, single point].

Question: How did the Potency turn out when `O=C(NCc1ccco1)C1Cc2ccccc2CN1C(=O)c1ccco1` (stereo not given) was run?
Answer: The Potency was inconclusive [inhibitor, full curve, poor fit].

Question: With `CCN(CCCNC(=O)C1CCC(=O)N1Cc1ccccc1Cl)c1cccc(C)c1` (stereo not given) as the compound, how does the Potency read?
Answer: The Potency was inconclusive [inhibitor, single point].

Question: How did the “activity change, negative = inhibition” value turn out when `CCOC(=O)CN1C(=O)S/C(=C/c2ccc3c(c2)n(C)c(=O)n3C)C1=O` was run?
Answer: Its value is inactive: -2.6%.

Question: How did the “activity change, negative = inhibition” value turn out when `Cc1ccsc1/C=C/c1ccc2ccccc2n1` was run?
Answer: The value was inactive: 1.94%.

Question: `O=C(CCNc1ccccc1)c1cccc([N+](=O)[O-])c1` was tested. Which Potency did it give?
Answer: The Potency was active: 0.447 µM.

Question: Which “activity change, negative = inhibition” value does the source give for `CCN(CC)CCNc1ncnc2c1sc1nc(N3CCOCC3)c3c(c12)CCCC3` here?
Answer: Its value is inactive: 13.1%.

Question: `COCCCNC(=O)Cn1cc(C(=O)c2cccs2)c2ccccc21` was tested. Which Potency did it give?
Answer: Its Potency is inconclusive [inhibitor, single point].
